# Laboratory results reported in publication PMC9911399, “Two distinct binding modes provide the RNA-binding protein RbFox with extraordinary sequence specificity”.
# Numbering of substitutions follows the chain as printed; changes in the protein carry UniProt numbers. This is one part of the list.
# T1: RBFOX1 RRM (Homo sapiens, UniProt Q9NWB1 109-208)
# T1 sequence: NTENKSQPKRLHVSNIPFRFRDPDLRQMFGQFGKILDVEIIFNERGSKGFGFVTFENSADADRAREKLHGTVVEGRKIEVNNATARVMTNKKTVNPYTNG
# B1: AUGACAG (DNA:RNA)
# RNA: GGGAGACCGGAAUUCAGAUUGUCCAUGACAGUUAAAUCCCGUCGUAGCCACCA
# DNA 1: CAATCTGAATTCCGGTCTCCC
# DNA 2: TGGTGGCTACGACGGGATT
# B2: UCGCAGG (DNA:RNA)
# RNA: B1 RNA with A25U, U26C, A28C, C29A, A30G
# DNA 1: CAATCTGAATTCCGGTCTCCC
# DNA 2: TGGTGGCTACGACGGGATT
# B3: GGAUUGC (DNA:RNA)
# RNA: GGGAGACCGGAAUUCAGAUUGUCCGGAUUGCUUAAAUCCCGUCGUAGCCACCA
# DNA 1: CAATCTGAATTCCGGTCTCCC
# DNA 2: TGGTGGCTACGACGGGATT
# B4: UAGCAGA (DNA:RNA)
# RNA: B1 RNA with A25U, U26A, A28C, C29A, A30G, G31A
# DNA 1: CAATCTGAATTCCGGTCTCCC
# DNA 2: TGGTGGCTACGACGGGATT
# B5: GAAACCU (DNA:RNA)
# RNA: B1 RNA with A25G, U26A, G27A, A30C, G31U
# DNA 1: CAATCTGAATTCCGGTCTCCC
# DNA 2: TGGTGGCTACGACGGGATT
# B6: GGAACUG (DNA:RNA)
# RNA: B1 RNA with A25G, U26G, G27A, A30U
# DNA 1: CAATCTGAATTCCGGTCTCCC
# DNA 2: TGGTGGCTACGACGGGATT
# B7: AUAGGGA (DNA:RNA)
# RNA: B1 RNA with G27A, A28G, C29G, A30G, G31A
# DNA 1: CAATCTGAATTCCGGTCTCCC
# DNA 2: TGGTGGCTACGACGGGATT
# B8: CGACCGC (DNA:RNA)
# RNA: B3 RNA with G25C, U28C, U29C
# DNA 1: CAATCTGAATTCCGGTCTCCC
# DNA 2: TGGTGGCTACGACGGGATT
# B9: UGCAAAG (DNA:RNA)
# RNA: B1 RNA with A25U, U26G, G27C, C29A
# DNA 1: CAATCTGAATTCCGGTCTCCC
# DNA 2: TGGTGGCTACGACGGGATT
# B10: AGUAAAA (DNA:RNA)
# RNA: B1 RNA with U26G, G27U, C29A, G31A
# DNA 1: CAATCTGAATTCCGGTCTCCC
# DNA 2: TGGTGGCTACGACGGGATT
# B11: UGAUGAU (DNA:RNA)
# RNA: B3 RNA with G25U, U29G, G30A, C31U
# DNA 1: CAATCTGAATTCCGGTCTCCC
# DNA 2: TGGTGGCTACGACGGGATT
# B12: CAAUUUU (DNA:RNA)
# RNA: B3 RNA with G25C, G26A, G30U, C31U
# DNA 1: CAATCTGAATTCCGGTCTCCC
# DNA 2: TGGTGGCTACGACGGGATT
# B13: GCCUACA (DNA:RNA)
# RNA: B3 RNA with G26C, A27C, U29A, G30C, C31A
# DNA 1: CAATCTGAATTCCGGTCTCCC
# DNA 2: TGGTGGCTACGACGGGATT
# B14: UGCGGGC (DNA:RNA)
# RNA: B3 RNA with G25U, A27C, U28G, U29G
# DNA 1: CAATCTGAATTCCGGTCTCCC
# DNA 2: TGGTGGCTACGACGGGATT
# B15: UGUCCUA (DNA:RNA)
# RNA: B1 RNA with A25U, U26G, G27U, A28C, A30U, G31A
# DNA 1: CAATCTGAATTCCGGTCTCCC
# DNA 2: TGGTGGCTACGACGGGATT
# B16: AGUCGUC (DNA:RNA)
# RNA: B3 RNA with G25A, A27U, U28C, U29G, G30U
# DNA 1: CAATCTGAATTCCGGTCTCCC
# DNA 2: TGGTGGCTACGACGGGATT
# B17: UAUAGCU (DNA:RNA)
# RNA: B1 RNA with A25U, U26A, G27U, C29G, A30C, G31U
# DNA 1: CAATCTGAATTCCGGTCTCCC
# DNA 2: TGGTGGCTACGACGGGATT
# B18: AAUGAAG (DNA:RNA)
# RNA: B1 RNA with U26A, G27U, A28G, C29A
# DNA 1: CAATCTGAATTCCGGTCTCCC
# DNA 2: TGGTGGCTACGACGGGATT
# B19: CUGUGCC (DNA:RNA)
# RNA: B1 RNA with A25C, A28U, C29G, A30C, G31C
# DNA 1: CAATCTGAATTCCGGTCTCCC
# DNA 2: TGGTGGCTACGACGGGATT
# B20: AGGAAAC (DNA:RNA)
# RNA: B1 RNA with U26G, C29A, G31C
# DNA 1: CAATCTGAATTCCGGTCTCCC
# DNA 2: TGGTGGCTACGACGGGATT
# Target: T1, RBFOX1 RRM
# Assay: EMSA; HiTS-Eq, 1 nM pool, 10 min; buffer printed only for the single-RNA assays: 10 mM Tris pH 7.5, 150 mM NaCl, 3.4 mM EDTA, 0.001% NP-40, 30 C
# Conditions: tags: His6 N-terminal (pET28a); label: 5' 32P
# Method in brief: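 Relative association constants, normalised to the cognate motif, were derived by comparing read counts of each RNA species with those of the control reaction. The RNA sequenced was the free fraction, separated by 8% native PAGE after a 10 min equilibration in 50 µL of 1 nM 5′-radiolabelled RNA (7 randomized nucleotides) with increasing concentrations of purified wild-type or mutant RbFox RRM.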
row,Binder,binding signal
1,B1,0.00726 KA relative to UGCAUGU
2,B2,0.0168 KA relative to UGCAUGU
3,B3,0.0376 KA relative to UGCAUGU
4,B4,0.0111 KA relative to UGCAUGU
5,B5,0.00477 KA relative to UGCAUGU
6,B6,0.0214 KA relative to UGCAUGU
7,B7,0.00357 KA relative to UGCAUGU
8,B8,0.01 KA relative to UGCAUGU
9,B9,0.0165 KA relative to UGCAUGU
10,B10,0.00349 KA relative to UGCAUGU
11,B11,0.0214 KA relative to UGCAUGU
12,B12,0.00147 KA relative to UGCAUGU
13,B13,0.00989 KA relative to UGCAUGU
14,B14,0.00732 KA relative to UGCAUGU
15,B15,0.00708 KA relative to UGCAUGU
16,B16,0.0118 KA relative to UGCAUGU
17,B17,0.00579 KA relative to UGCAUGU
18,B18,0.00997 KA relative to UGCAUGU
19,B19,0.0119 KA relative to UGCAUGU
20,B20,0.0142 KA relative to UGCAUGU
